The supplement of paper PMC9174493
Some of the results follow. Single values of this set are uncertain. Values with irradiation are relative to irradiated vehicle.

Legend:
A549-Dual [1] = assay: NF-kB reporter (SEAP) activity, viability-corrected, relative to vehicle (fold change vs vehicle); higher = more activation of STING-IRF / NF-kB immune response reporter; conditions: 10 µM
A549-Dual [2] = assay: ISRE reporter (Lucia luciferase) activity, viability-corrected, relative to vehicle (fold change vs vehicle); higher = more activation of STING-IRF / NF-kB immune response reporter; conditions: 10 µM
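Throughout, for NF-kB reporter (SEAP) activity, viability-corrected, relative to vehicle: viability correction based on the alamar blue assay, with concentrations leaving 10% survival or less dropped.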

SMILES | NF-kB reporter (A549-Dual [1]; irradiation: 8 Gy/4 fr) | NF-kB reporter (A549-Dual [1]; irradiation: none) | ISRE reporter (A549-Dual [2]; irradiation: 8 Gy/4 fr) | ISRE reporter (A549-Dual [2]; irradiation: none)
CCOC1OC2OC3(C)CCC4C(C)CCC(C1C)C24OO3 (stereo not drawn) [Arteether] | 0.881 | 1.18 | 1.2 | 3.07
O=Cc1ccco1 [Furfural] | 1.11 | 0.645 | 0.875 | 0.522
C#CC1(OC(=O)CCCCCC)CCC2C3CCC4=CC(=O)CCC4C3CCC21C (stereo not drawn) [Norethisterone Enanthate] | 0.332 | 0.714 | 0.0463 | 0.111
CC(CCc1ccccc1)NC(C)C(O)c1ccc(O)cc1.Cl (stereo not drawn) [Nylidrin Hydrochloride] | 1.04 | 0.689 | 1.18 | 0.715
C[N+](C)(C)CCCCCCCCCC[N+](C)(C)C.[Br-].[Br-] [Decamethonium Bromide] | 0.915 | 0.823 | 1.09 | 0.888
CCC(C)(C)C1C(=O)N2CCCC2C2(O)OC(NC(=O)C3CC4c5cccc6[nH]cc(c56)CC4N(C)C3)(C(C)C)C(=O)N12 (stereo not drawn) [Ergoloid Mesylates] | 0.814 | 1.53 | 0.652 | 3.04
O=c1[nH]c2ccccc2n1C1CCN(CCCC(c2ccc(F)cc2)c2ccc(F)cc2)CC1 [Pimozide] | 0.627 | 0.82 | 0.225 | 0.738
CNCC(O)c1ccc(O)cc1.Cl (stereo not drawn) [Synephrine HCl] | 0.702 | 0.924 | 0.724 | 0.992
CNCC(O)c1ccc(O)cc1 (stereo not drawn) [Synephrine] | 0.922 | 0.796 | 1.05 | 0.928
O=c1ccc2ccc3occc3c2o1 [Isopsoralen] | 0.642 | 0.631 | 0.583 | 0.64
Cc1cccc(C)c1NC1=NCCCS1 [Xylazine] | 0.838 | 1.48 | 0.765 | 0.779
COc1ccc(C=O)cc1 [p-Anisaldehyde] | 0.781 | 0.83 | 0.662 | 0.537
